# Measured values reported in PubChem BioAssay AID1345082 (National Center for Advancing Translational Sciences (NCATS), 2018).
# “And” between values parts separate entries of the source, which are not always exact repeats. Equal entries are not always repeated. About 4,000 (4.3%) of roughly 94,000 compounds were called active. The inconclusive results got no clear call from the source; some entries with a clear call stand among them for comparison. Calls follow the shape of the dose curve; as a rule, active = well fitted inhibition curve with a large enough effect; inconclusive = small, poorly fitted or top-dose-only effect; inactive = no such curve, though single readings can be large or run the other way. A potency beside an inconclusive call is a rough fit, not a confirmed value.
# Assay: Cytotoxic Profiling in NIH 3T3 Cell Line of Diverse Libraries Using Quantitative High-Throughput Screening; also: nearly all actives have a fitted effect of over 55% in size
# Conditions: NIH 3T3 viability, CellTiter-Glo ATP luminescence, 48-72 h; series mostly up to 96.7 µM
# Outline: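 Cytotoxicity was measured by CellTiter-Glo ATP luminescence after 48 or 72 h compound exposure at 37 °C. Mouse NIH 3T3 fibroblasts were seeded at 400 cells/well and dosed by 23 nL pin transfer.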
# Potency is read from the fitted curve at half-maximal effect; tags tell the direction and shape of the fitted curve.
row,SMILES,Potency
1,CC(c1cccs1)N(C)C(=O)Cc1ccc(F)cc1 (configuration not stated),inactive
2,CCc1nc2nccc(-c3ccc(OC)c(OC)c3)n2n1,"inconclusive: 50.1 µM [inhibitor, partial curve, poor fit]"
3,CCOC(=O)[C@@H]1[C@@H](OC(N)=O)C(=O)N(C(C)C)C12CCN(C(=O)Cc1cccs1)CC2,"inconclusive: 50.1 µM [inhibitor, partial curve, poor fit]"
4,O=C(NCCCc1ccccc1)C1CCN(C(=O)N2CC3CC(C2)[C@H]2CCCC(=O)N2C3)CC1 (some centres not stated),inactive
5,O=C(O)c1cccc2c1CCN2S(=O)(=O)c1ccccc1,"inconclusive: 70.8 µM [inhibitor, single point]"
6,CCN1c2cc(C(=O)N3CCN(c4ccc(F)cc4)CC3)ccc2C(=O)N2CCCCC21 (configuration not stated),inactive
7,COc1cccc(CN2CCC(N3C(=O)C(OCC4CC4)C34CCCCC4)CC2)c1OC (configuration not stated),"inconclusive: 50.1 µM [inhibitor, partial curve, poor fit]"
8,CCOc1cc(=O)n2c(c1C(=O)Nc1cc(F)ccc1F)CCCC2,"inconclusive: 70.8 µM [inhibitor, single point]"
9,COc1ccc(CNC(=O)[C@@H]2CCC[C@@H](NCc3ccc(C(F)(F)F)cc3)CN(C)C(=O)C2)cc1,"inconclusive: 50.1 µM [inhibitor, partial curve, poor fit]"
10,COc1ccccc1CC(=O)N1CCC[C@H]1c1nc(-c2ccccc2)no1,"inconclusive: 50.1 µM [inhibitor, partial curve, poor fit]"
11,O=C(NCc1cccs1)c1ccc2nnc(CC3CC3)n2c1,"inconclusive: 79.4 µM [inhibitor, partial curve]"
12,COc1ccc(C2Cn3nnc(-c4noc(-c5cccc(Cl)c5)n4)c3CO2)cc1 (configuration not stated),inactive
13,O=C(c1ccc2nccn2c1)N1CCC(C(O)CCc2ccccc2)CC1 (configuration not stated),"inconclusive: 50.1 µM [inhibitor, partial curve, poor fit]"
14,Cc1ccc(C(=O)N2CCCC2C(=O)N2CCC(N3CCCC3=O)CC2)cc1 (configuration not stated),inactive
15,CC(=O)Nc1ccc(C2(C(=O)NCc3ccccc3Cl)CCC2)cc1,inactive
16,O=C(NCc1ccc(C(F)(F)F)cc1)C1CCCN(Cc2cccc(-c3cccs3)c2)C1 (configuration not stated),active: 11.2 µM
17,C=CCO[C@@H]1C[C@H]2C(=O)Nc3ccc(-c4ccc(F)cc4F)cc3C(=O)N2C1,active: 50.1 µM
18,CCCn1ncc(CN2CC[C@H](N3CCN(C)CC3)[C@H](CCC(=O)O)C2)c1C,inactive
19,O=C([C@H]1CCCN1C(=O)Cc1cccc(Cl)c1)N1CCCC(c2nc3ccncc3[nH]2)C1 (some centres not stated),inactive
20,O=C(Cc1cccc(F)c1)N1CCCC(Cc2nc(C3CCOCC3)no2)C1 (configuration not stated),inactive
21,Cc1nc2cnccn2c1C(=O)NC1CC1,inactive
22,CCc1nc(-c2c3n(c(=O)n(Cc4cc(F)ccc4F)c2=O)CCCC3)no1,"inconclusive: 50.1 µM [inhibitor, partial curve, poor fit]"
23,O=C(CN1CCN(C(=O)c2cc3c(s2)CN(C2CCCC2)C3)CC1)N1CCCC1,"inconclusive: 50.1 µM [inhibitor, single point]"

row,SMILES,Potency
1,Cc1ccc([S+](=O)([O-])NC2CCN(c3ccc4nnc(C5CC5)n4n3)C2)cc1 (configuration not stated),"inconclusive: 35.5 µM [inhibitor, partial curve]"
2,Cc1cnc(CCNS(=O)(=O)c2ccc(C#N)cc2)n1C1CC1,inactive
3,Cc1nn2c(c1-c1ccccc1-c1ccccc1)N(C(=O)COc1ccccc1)CCC2,"inconclusive: 100 µM [inhibitor, partial curve]"
4,c1cc(-c2noc([C@@H]3CCCN3Cc3ncc[nH]3)n2)cc(N2CCCC2)n1,"inconclusive: 56.2 µM [inhibitor, full curve, poor fit]"
5,O=C(c1ccc(N2CCOCC2)nc1)N1CCC(Cn2cccn2)CC1,inactive
6,COCCS(=O)(=O)c1ncc(CN2CCCCO2)n1Cc1ccccc1,"inconclusive: 44.7 µM [inhibitor, partial curve, poor fit]"
7,COCCOc1cc(C)c2c(c1C)C[C@H](C(C)C(=O)N1CCSCC1)CC2 (some centres not stated),"inconclusive: 56.2 µM [inhibitor, partial curve, poor fit]"
8,Cc1nn2c(c1-c1ccccc1OCc1ccccc1)N(Cc1ccccc1)CCC2,"inconclusive: 56.2 µM [inhibitor, partial curve, poor fit]"
9,CN(c1ccccc1)c1ccc2nnc(-c3cc(C(=O)NCC4CCCO4)ccn3)n2n1 (configuration not stated),"inconclusive: 2.82 µM [inhibitor, full curve, poor fit]"
10,O=C(NC1CCN(c2cc(-c3cccs3)[nH]n2)CC1)c1cccc(F)c1,"inconclusive: 31.6 µM [inhibitor, full curve]"
11,CCCNC(=O)C1N(c2ccc(OC)cc2)C(=O)C12CCCCC2 (configuration not stated),inactive
12,CCCC(=O)N1Cc2ccccc2CC2(CCN(Cc3ccccn3)C2)C1 (configuration not stated),inactive
13,COc1ccc(C(=O)N[C@H]2C[C@@H](c3nc(-c4ccc(OC)cc4)no3)N(C)C2)cc1,"inconclusive: 39.8 µM [inhibitor, full curve, poor fit]"
14,CCCOC(=O)C1=CN(Cc2ccccc2)S(=O)(=O)N=C1C,inactive
15,CN(C)c1cccc(C(=O)NC2CCN(c3cc(-c4cccs4)[nH]n3)C2)c1 (configuration not stated),"inconclusive: 50.1 µM [inhibitor, partial curve, poor fit]"
16,COc1ccc(NC(=O)C2(C)CCCc3cnc(Nc4ccccc4)nc32)cn1 (configuration not stated),active: 79.4 µM
17,O=C(NCc1cccc(Cl)c1)c1cc(-c2cccs2)c2cccn2n1,"inconclusive: 31.6 µM [inhibitor, full curve, poor fit]"
18,O=C(Nc1ccc(C2(C(=O)NCc3ccco3)CCCCC2)cc1)C1CC1,inactive
19,CC(=O)N1CCN(C(=O)c2ccc3nc(-c4cccc(C)n4)oc3c2)CC1,inactive
20,COc1ccc(-c2[nH]nc3ncc(C(=O)NCCc4ccccc4)nc23)c(C)c1,"inconclusive: 8.91 µM [inhibitor, full curve, poor fit]"
21,COc1ccc(C(=O)N(CC2CC2)CC2CN(C(=O)Nc3ccccc3)CCO2)cc1OC (configuration not stated),"inconclusive: 31.6 µM [inhibitor, partial curve]"
22,COc1cccc(CNC(=O)[C@@H]2C[C@@H](O)CN2C2CCN(C(=O)c3sccc3C)CC2)c1,inactive
23,COc1ccc2c(c1)OC[C@@H]1CN(CC(C)(C)O)C(=O)CCN(C(=O)c3ccc(F)cc3)[C@H]21,"inconclusive: 79.4 µM [inhibitor, partial curve, poor fit]"

row,SMILES,Potency
1,O=C(c1cccnc1)N1CCCC2(C1)C(=NC1CCCCC1)NC(=O)N2c1cccnc1 (configuration not stated),inactive
2,O=C(NCc1ccccc1)c1cnc2n1CCN(Cc1ccccn1)CC2,"inconclusive: 112 µM [inhibitor, single point]"
3,COc1ccc(NC(=O)Cn2c(N3CCN(c4ccccc4)CC3)nc(C)cc2=O)cc1,inactive
4,Cc1sc2ccn(C)c(=O)c2c1C(=O)N1CCN(c2ccc(F)cc2)CC1,inactive
5,Cc1nnc(CN(C)c2ccc(-c3nc(-c4cccc(Cl)c4)no3)cn2)o1,"inconclusive: 8.91 µM [inhibitor, full curve, poor fit]"
6,COc1cccc(CNC(=O)Cn2cccc2-c2nc(-c3ccc4c(c3)OCO4)no2)c1,inactive
7,COc1cccc(N2CC(C(=O)NCc3cccc(F)c3)NC2=O)c1 (configuration not stated),inactive
8,COC(=O)[C@@H]1Cc2c([nH]c3ccccc23)[C@H]2C[C@@H](NCCO)C[C@@H](c3ccc(F)cc3)N21,active: 28.2 µM
9,C[S+](=O)([O-])c1ccc(-c2cc3c(cn2)CN(Cc2ccccc2)CCN3)cc1,"inconclusive: 89.1 µM [inhibitor, partial curve, poor fit]"
10,O=C(c1ccccc1)N1CCC2(C1)C(=O)N(CCc1ccccc1)c1ccccc12 (configuration not stated),"inconclusive: 56.2 µM [inhibitor, partial curve, poor fit] and inconclusive: 50.1 µM [inhibitor, partial curve, poor fit]"
11,CC(=O)N1CCN(c2ccnc(-c3nnc(C)n3-c3ccccc3)c2)CC1,active: 89.1 µM
12,CN1c2cccnc2CN(C(=O)Nc2cccc(C(F)(F)F)c2)CC[C@H]1CO,"inconclusive: 112 µM [inhibitor, partial curve, poor fit]"
13,O=C1NCCCCCCN(Cc2ccncc2)[C@@H]2CN(S(=O)(=O)c3ccccc3)CC[C@H]12,inactive
14,CCOCCNc1nccc(C2(c3ccccc3Cl)CCNCC2)n1,"inconclusive: 56.2 µM [inhibitor, partial curve, poor fit]"
15,Cc1cccc(C)c1NC(=O)N(C)CC1CCOC1 (configuration not stated),inactive
16,O=C(NC1CCCC1)N1CCC2(CC1)CC(N(Cc1ccc(F)cc1)C1CC1)CCO2 (configuration not stated),"inconclusive: 50.1 µM [inhibitor, partial curve, poor fit]"
17,Cc1ccccc1OCc1nc(C2CN(C(=O)c3cc(F)ccc3F)C2)no1,inactive
18,CC1=C[C@@H](CNC(=O)c2cnccn2)[C@H](C(C)C)C[C@H]1Cc1nc2ccccc2n1C,"inconclusive: 89.1 µM [inhibitor, partial curve, poor fit]"
19,COc1ccc(C(=O)N[C@@H]2CCC[C@@H]2C(=O)NCCCc2ccccc2)cn1,inactive
20,CCn1cnnc1CC1CCCN(C(=O)c2cccc(F)c2)C1 (configuration not stated),inactive
21,COc1ccc(CN2CCCC3(C2)C(=NC2CCCCC2)NC(=O)N3c2cccnc2)cc1 (configuration not stated),"inconclusive: 20 µM [inhibitor, full curve, poor fit]"
